# Assay results as given in the supplement of paper PMC7125110.
# ± gives the standard error. Variants at the background level are over-represented here.
# B1: glmS ribozyme (parent)
# chain: AUAAAAGCGCCAGAACUACAGAAAUGUAGUUGACGAGGAGGAGGUUUAUCGAAUUUUCGGCGGAUGCCUCCAAA
# Variants of: B1
# Test: self-cleavage kobs at 10000 uM GlcN6P; higher = faster cleavage; RNA array
# Details: with glucosamine-6-phosphate
# In short: (§1)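 Using a hybridised Cy3 probe at 37 °C, barcoded ribozyme variants transcribed in situ by E. coli RNA polymerase on sequenced MiSeq chips were monitored across tiles imaged over ~14 h. The flow contained glucosamine-6-phosphate from 40 μM to 10 mM in HEPES/KCl/Mg(OAc)2 buffer. Signals were normalised to baseline and to non-cleaving reference variants before per-tile medians were fit to one- or two-exponential decays to yield kobs. Weighted Michaelis–Menten fits across concentrations gave kcat and KM.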
row,Variant,self-cleavage kobs at 10000 uM GlcN6P [s⁻¹]
1,A12G G29A U46C,6.56e-05 ± 1.2e-05
2,A6U C50G A52U C61G C68U,4.51e-05 ± 1.6e-05
3,C10A G29C A52U,< 1e-05
4,A14U A15U G40U,0.000149 ± 2.6e-05
5,G7A A52U U57C,< 1e-05
6,C10U A48G A53G,< 1e-05
7,C10U G38U U46A C58U,< 1e-05
8,A6C A14U A36G C70A,< 1e-05
9,A33C A64U G66A U69C,< 1e-05
10,C8G G29C G37A G38U C58G,< 1e-05
11,G29U A33C G60U G63U,< 1e-05
12,C10U U31C A39C G43U,< 1e-05
13,A6C G9U G29U G51A U65C C67G,< 1e-05
14,C8U A36U U45A,< 1e-05
15,A6U A42U C50U A53G U54C U57A U69C,< 1e-05
16,G37C A42G,5.87e-05 ± 1e-05
17,G7U A15U A33G,< 1e-05
18,G32U C34G G40A,< 1e-05
19,A6C G9A C34A G40C G43A C50U U54A C58G C68U,< 1e-05
20,G51C C71U,< 1e-05
21,A15C A36C G40C,< 1e-05
22,G29C U30G G62U,< 1e-05
23,G9A A36U U45A A64C,< 1e-05
24,U31G G35U G37A U65C,< 1e-05
25,A6U U30A U31C A36C,< 1e-05
26,A12G G44U C58G,< 1e-05
27,U30G U49A C68A,< 1e-05
28,C8U G51U U69A,0.000401 ± 0.00014

row,Variant,self-cleavage kobs at 10000 uM GlcN6P [s⁻¹]
1,A33G A39U G63U C67G,< 1e-05
2,A33U G66A,5.28e-05 ± 6.4e-06
3,G29U G35C G43C G59A,< 1e-05
4,A14U G32C G38C A52G,< 1e-05
5,G32U G38U U69C,< 1e-05
6,G9U C16U G32A,< 1e-05
7,G7C G59U,< 1e-05
8,A15G C16U G29C,0.00377 ± 0.00075
9,A15U A33C G41C,< 1e-05
10,G32U C34G G35C,< 1e-05
11,A14C A48C,4.92e-05 ± 1.2e-05
12,C10U A42G C58G C71A,< 1e-05
13,G7A C10U C16U A33U C67U,< 1e-05
14,G9C G35U,< 1e-05
15,A33G A36G U65A,< 1e-05
16,G9U U46G U54A G63A,< 1e-05
17,G9U U47G C50A G60U,< 1e-05
18,A42U A48U A64U C68U,< 1e-05
19,G44A C50A C68U,< 1e-05
20,C10U A22C G40C U56C C58A,< 1e-05
21,C11U U55G U65A,4.36e-05 ± 2e-05
22,C16U G29C G35U A39G,< 1e-05
23,C10A G38C C67U,< 1e-05
24,C8A A52C G62A,< 1e-05
25,G7C U31C G63U,< 1e-05
26,C8U C10A A48G U65A,< 1e-05
27,G13U A15C U54C,0.000122 ± 1.9e-05

# Variants of: B1
# Test: self-cleavage kobs at 2500 uM GlcN6P; higher = faster cleavage; RNA array
# Details: with glucosamine-6-phosphate
# In short: as §1
row,Variant,self-cleavage kobs at 2500 uM GlcN6P [s⁻¹]
1,G9C G13C C34A G62C A64G,< 1e-05
2,G13C U55G G60A,< 1e-05
3,C8A C10U G29C U49C C61G C70A,< 1e-05
4,G38U G59U,< 1e-05
5,G35A U45A U57C C71G,< 1e-05
6,U46A A52C,< 1e-05
7,G35C U54G C61G C67U,< 1e-05
8,A14C A15C G38U,< 1e-05
9,C61A A64U C68U,< 1e-05
10,G38U G41U U56A G59C,< 1e-05
11,G38A G63A A64U,< 1e-05
12,G44U U49C C61A,< 1e-05
13,C10G G41A,< 1e-05
14,A14U A15U G40U,0.000122 ± 3.7e-05
15,A15G A39U G40A C61A,< 1e-05
16,A14G C16G A64G U69G,5.19e-05 ± 2.3e-05
17,A39C A42G G59U G63C,< 1e-05
18,C10A A33U A42C,< 1e-05
19,G21U G35U,< 1e-05
20,C8U A42G A53C,< 1e-05
21,A12G C16U U31G C34A G63C,< 1e-05
22,G41A C61A G62A,< 1e-05
23,C8U C10G U31C,< 1e-05
24,C16G G32C G41A A52G,< 1e-05

row,Variant,self-cleavage kobs at 2500 uM GlcN6P [s⁻¹]
1,A53U C67A C70A,5.59e-05 ± 2.7e-05
2,G9U G37C G63U C67U,< 1e-05
3,G37C A42G,4.76e-05 ± 1.3e-05
4,U31G U56C G62A,< 1e-05
5,C34U A64G U69C,< 1e-05
6,G43A A53G G60U C70U,< 1e-05
7,G29C U30G G35A,< 1e-05
8,A36C G59C U69C,< 1e-05
9,A12C U31C C61U C68A,< 1e-05
10,G51C C71U,< 1e-05
11,G13U G66C C68U,< 1e-05
12,C11A G43U U54G,< 1e-05
13,A36C G41A A53U U65A C67G,< 1e-05
14,A42G U49C C68G,< 1e-05
15,U49G C61U C67G,< 1e-05
16,C11G G35A G40A,< 1e-05
17,A15C U31A G43C A48C A64G,< 1e-05
18,C10U U31C A33U G43C,< 1e-05
19,G32C G41U G43C,< 1e-05
20,C34U G35U U57G G59C A64G C67U,< 1e-05
21,G37C G41C U54A,< 1e-05
22,A36C U54A C61A C67A,6.51e-05 ± 2.2e-05
23,A14C G26U G38A G44A U45A,< 1e-05
24,A52C A53U C70U,< 1e-05

row,Variant,self-cleavage kobs at 2500 uM GlcN6P [s⁻¹]
1,G35C G38U U56C,< 1e-05
2,C34A G40U G63C,< 1e-05
3,G13A A52C G60A,< 1e-05
4,C11G U46C C70U,< 1e-05
5,U30G G37C C58U,< 1e-05
6,G35U A39C G60U C67U C68U,< 1e-05
7,C11G U31C U56C,< 1e-05
8,G29U G38C C61G G63U,< 1e-05
9,G13A U31G G35C U47G,< 1e-05
10,C8A C16U G43C C50U,< 1e-05
11,A15C G37A A53C G60U,< 1e-05
12,C34A A36G C71U,< 1e-05
13,G9U G38C C67U C70G,< 1e-05
14,A33G A39U G63U C67G,< 1e-05
15,G35C A36C G62A U69G C70G,< 1e-05
16,A33U G66A,3.2e-05 ± 1e-05
17,A53G G63U C71A,< 1e-05
18,C8G G13U U31C G38A U57C U69C C71U,< 1e-05
19,A12U G38U U49A,< 1e-05
20,G9A U45A A52G G60A A64C,< 1e-05
21,G59U A64C G66C,< 1e-05
22,G9A G13U C34G U57G C61U,< 1e-05
23,G32U G38C G40C U57C C67A,< 1e-05
24,A33G A52G G63A,< 1e-05

row,Variant,self-cleavage kobs at 2500 uM GlcN6P [s⁻¹]
1,A15U A42U G43C C61G U69A,< 1e-05
2,G9U C16U G32A,< 1e-05
3,C34U A53G U54C G59A,< 1e-05
4,A14G G51C A64U C67G C71U,< 1e-05
5,U31A A33G U45C U57G A64C C71U,< 1e-05
6,G9A A42C G63A,< 1e-05
7,G32C A53U U54G C71A,< 1e-05
8,A14U U30G A48C G51U,< 1e-05
9,A14C A48C,4.95e-05 ± 1.2e-05
10,G32U U55A C70U,0.000404 ± 8e-05
11,C10U G32U A33C G38C G59C U69G,< 1e-05
12,A15G U55G C71U,0.00368 ± 0.0014
13,A48C U57G,< 1e-05
14,A48C U57C,< 1e-05
15,G9C G35U,< 1e-05
16,A15U U30G A42U G60U G62A C71U,< 1e-05
17,C11G A36G C71G,< 1e-05
18,G13U G29U G38A,< 1e-05
19,A14U A39C G51A,< 1e-05
20,A33G A36G U65A,< 1e-05
21,G35C G40U U47A G59U C61G,< 1e-05
22,G13U A15U A48C,< 1e-05
23,G9A C16G G38U G43C A48C C50A C70A,< 1e-05
24,C11A A39G G44A,< 1e-05

row,Variant,self-cleavage kobs at 2500 uM GlcN6P [s⁻¹]
1,C8G A15U G66A,< 1e-05
2,A15C A52C U54C C67A,< 1e-05
3,C34G U45C,< 1e-05
4,A39G G41A G43C G63U,< 1e-05
5,A42U U45C U55A,6.42e-05 ± 1.1e-05
6,A42U A48U A64U C68U,< 1e-05
7,G32A A64G C68A,< 1e-05
8,G44A C50A C68U,< 1e-05
9,G7U U46A A48U,< 1e-05
10,G44C U57C C71U,< 1e-05
11,A15C G44A C58G G62U,< 1e-05
12,A15G G32C C70G,< 1e-05
13,G32C G37C G40C G62C C68A,< 1e-05
14,G37A G40C U49C,< 1e-05
15,C8U G41U G62U,< 1e-05
16,G29U A33U G51A G59U,< 1e-05
17,G13U A15C U54C,0.00013 ± 3.3e-05
18,U30A A39C U49A U57A,< 1e-05
19,A39U U45G C50A U57A,< 1e-05
20,U30G A53C A64U,< 1e-05
21,G32U C61A C71A,< 1e-05
22,A15C G66U U69C,4.52e-05 ± 1.5e-05
